Experimental data published in the supplement of paper PMC3334620.
In all, about 33,000 sequences were measured (“E-score (-0.5 to 0.5)”: median about -0.011, highest 2% from about 0.28 on). This is one part of the list.

Molecular target: T1, Gcr1 (UniProt P07261)
T1 sequence: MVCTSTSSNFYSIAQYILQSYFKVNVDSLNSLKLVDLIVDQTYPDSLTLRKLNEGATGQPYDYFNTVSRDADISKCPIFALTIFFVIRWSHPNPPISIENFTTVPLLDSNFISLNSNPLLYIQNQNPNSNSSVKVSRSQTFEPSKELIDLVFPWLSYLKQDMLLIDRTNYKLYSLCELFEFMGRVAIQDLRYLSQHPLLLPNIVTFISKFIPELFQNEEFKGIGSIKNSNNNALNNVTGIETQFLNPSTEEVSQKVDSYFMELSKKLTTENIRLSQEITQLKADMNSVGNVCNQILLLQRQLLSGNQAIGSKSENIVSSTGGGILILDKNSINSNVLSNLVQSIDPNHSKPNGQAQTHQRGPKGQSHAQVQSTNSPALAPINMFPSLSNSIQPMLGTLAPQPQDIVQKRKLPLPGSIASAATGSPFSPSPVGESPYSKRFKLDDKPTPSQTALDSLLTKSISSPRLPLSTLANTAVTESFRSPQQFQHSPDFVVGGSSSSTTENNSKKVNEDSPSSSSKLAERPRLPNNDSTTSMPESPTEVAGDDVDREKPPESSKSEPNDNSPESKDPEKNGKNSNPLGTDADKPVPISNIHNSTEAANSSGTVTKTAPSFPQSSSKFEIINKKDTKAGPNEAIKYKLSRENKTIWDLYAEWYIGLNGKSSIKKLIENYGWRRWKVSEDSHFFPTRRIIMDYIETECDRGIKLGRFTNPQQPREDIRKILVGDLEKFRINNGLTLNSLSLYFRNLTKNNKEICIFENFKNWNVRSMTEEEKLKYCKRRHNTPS
Test: PBM E-score (8-mer binding enrichment) (E-score (-0.5 to 0.5)); higher = stronger / more preferred TF binding; most listed sequences are background and not binding sites
Conditions: protein concentration: 100 nM; construct: GST-full length
Summary of the method: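 Masliner-normalised scans of fluorescent anti-GST signal were the basis for scoring. That signal came from GST-tagged yeast transcription factors applied at about 100-200 nM to double-stranded universal all-10-mer Agilent arrays on fresh or once-stripped slides. Each ungapped eight-base word, pooled with its reverse complement, received an E-score from the Universal PBM Analysis Suite.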

| Sequence | PBM E-score |
| --- | --- |
| CCATTCCA | 0.192 |
| CTGGGAGC | 0.237 |
| AGGAGGGC | -0.143 |
| CGGAGACA | -0.0111 |
| CCATACCC | -0.0393 |
| GGCACCGA | 0.168 |
| CTGTGGGC | 0.0855 |
| AATCGCGC | -0.146 |
| AAAATTCG | -0.169 |
| ACCCTTAT | -0.201 |
| CCCCCGGA | -0.0989 |
| GAAGCAAC | -0.154 |
| CGCGGTGA | 0.0534 |
| TAACCGCA | 0.0873 |
| CGATCAAA | -0.0595 |
| AGGAATTA | 0.0425 |
| CCTCCCCG | 0.0903 |
| ATTTTTCA | 0.1 |
| AGAAGAGA | 0.01 |
| AAGAAGTC | 0.0767 |
| ATCGATCC | -0.0388 |
| CATGCGCG | -0.262 |
| ATGCTTGG | -0.112 |
| CTACGAGA | 0.169 |
| AACTTCCC | -0.0101 |

| Sequence | PBM E-score |
| --- | --- |
| GCGACCGA | 0.0959 |
| CTTCTGTA | 0.0812 |
| CAGTTTCG | -0.0405 |
| AATGGAGC | 0.0723 |
| GGTCCGAC | -0.223 |
| GGGTTAAA | -0.00202 |
| ATCATGGA | 0.171 |
| GCCGCGGC | 0.181 |
| AACGCACA | -0.103 |
| CGAGCAGA | -0.16 |
| AAGTTTGC | 0.0558 |
| CGAGAAAG | -0.122 |
| AACTCGTA | -0.0446 |
| CGCTCTGC | -0.126 |
| CATAGCGG | -0.0193 |
| ATTTCCTC | -0.197 |
| TCGCACGA | -0.0304 |
| GGGACTCA | -0.0478 |
| CGGGCCCC | 0.161 |
| AGGCGCCA | 0.268 |
| GGTGACAC | -0.0256 |
| CCGAGGGA | -0.183 |
| ACCAGATG | 0.183 |
| CCAGACCC | 0.0239 |
| CAGATTCG | 0.037 |

| Sequence | PBM E-score |
| --- | --- |
| AAAAACTT | 0.0377 |
| AGTTTGGC | 0.0104 |
| TCAAGACA | 0.0193 |
| CCAAGTCA | -0.049 |
| AATAAAAG | 0.24 |
| AATCATGA | -0.00347 |
| CCTGCTCC | -0.148 |
| CTCGAAAC | -0.0423 |
| CCGCCCCC | -0.248 |
| AATACAAG | 0.293 |
| CAGCTCCA | 0.0768 |
| CAAACAGG | -0.0114 |
| CAGCGGGC | 0.0112 |
| CAAATACA | 0.04 |
| GCGATAGC | -0.162 |
| TAGAGAAA | 0.0745 |
| CTAATTTC | 0.189 |
| CTGTGGGA | 0.0471 |
| CACACGGG | -0.157 |
| AAGCAAAA | -0.075 |
| GCTTCATA | -0.0609 |
| CCATAGGA | 0.023 |
| TCCAGGAA | 0.217 |
| AAATTCAG | 0.169 |
| CTTTTGCA | -0.0174 |

| Sequence | PBM E-score |
| --- | --- |
| CACCCAAA | 0.147 |
| CTGCGTAA | 0.18 |
| ACCAATAA | 0.0976 |
| ACTGCTGC | -0.133 |
| GTCGGAGA | 0.0462 |
| CTTGACGC | -0.067 |
| TCCCCTAA | 0.206 |
| TCGCAAGA | -0.0987 |
| GTGCAAAA | -0.0996 |
| AGTCAGCG | 0.0668 |
| GAACCACC | 0.0395 |
| ATCCAGAG | 0.103 |
| AAGATAGA | -0.0016 |
| CAGGTATA | -0.0414 |
| GGCCCCAA | 0.0424 |
| CGCTAGGC | -0.216 |
| CATATCAA | 0.109 |
| TACGTACA | -0.146 |
| AAGTCAGG | 0.131 |
| ACCAGCTG | -0.0501 |
| ACTTGCGG | 0.00462 |
| AGGTACGC | -0.127 |
| CCTTATCG | -0.104 |
| GCTTCGCC | 0.00109 |
| AGCCGAAT | 0.216 |

| Sequence | PBM E-score |
| --- | --- |
| ACGTATTC | 0.123 |
| AACGCTGG | -0.125 |
| CTCCCCAC | 0.0911 |
| ATTCGTAG | 0.152 |
| CACGCGGG | 0.113 |
| CGAGGCTC | -0.225 |
| GTAAACCA | -0.122 |
| CTAGCGGA | -0.0186 |
| AACCGAGA | -0.0782 |
| AGTAATGC | 0.0862 |
| GGTAAGAA | 0.0962 |
| ATCCTCTA | 0.18 |
| TCGACAAA | -0.0918 |
| GCTAGCCC | -0.133 |
| ATTTTCAG | 0.225 |
| CCGTGCGC | -0.199 |
| AGGAGACC | -0.111 |
| GCAGCCCC | 0.229 |
| ATGGCGCG | 0.116 |
| CGTGTGCC | -0.152 |
| ATGGCTAG | -0.182 |
| ATAGCTTA | -0.203 |
| AACGTCGG | -0.117 |
| CATGATGC | 0.0288 |
| AGATGCAT | -0.0722 |

| Sequence | PBM E-score |
| --- | --- |
| CAACTCAG | -0.108 |
| GGATATTA | 0.0353 |
| ACCTTACG | -0.103 |
| GGCTATTA | 0.0437 |
| CTAGTACA | -0.0271 |
| AGGTGAGA | -0.123 |
| AGAGCCGA | 0.0858 |
| AGCTTTCC | -0.195 |
| ATCCGAAC | 0.124 |
| GTGGACGA | -0.0657 |
| AAACAGCG | 0.0446 |
| ACGTGATG | -0.123 |
| ACCACGAA | 0.0394 |
| CTCTGTGA | -0.136 |
| CGTACCAA | -0.0421 |
| ATAACGAT | -0.0472 |
| AGGGAATC | 0.0666 |
| CATGTAGG | 0.1 |
| ATGGATAA | -0.189 |
| TTTAAAAA | 0.12 |
| GACTATTA | 0.164 |
| AGGAAAAC | -0.0801 |
| CTCACTGC | -0.1 |
| ATGGCAGC | 0.0656 |
| CAAGTATA | -0.0848 |

| Sequence | PBM E-score |
| --- | --- |
| CATACGGG | 0.079 |
| CACGGAGG | -0.1 |
| ACTGCGCG | -0.181 |
| AAATACTG | 0.188 |
| AGCCGTCG | -0.216 |
| AGGGAAGA | -0.198 |
| CAGTTCCC | 0.165 |
| CAGTTGGG | -0.0256 |
| ATAATCGA | 0.141 |
| ACTTCCGC | 0.0681 |
| AGAGTGGG | 0.177 |
| CGCTGGAC | 0.0666 |
| AGTTTCAC | 0.0173 |
| CACCAGTG | 0.036 |
| CCATCGAA | -0.152 |
| CAGACTAG | -0.174 |
| CTCAGGAG | -0.0598 |
| ACGGCTGC | -0.014 |
| ACCTGTGG | -0.0729 |
| CTATTGCA | -0.00827 |
| ACATGACT | -0.0743 |
| CGCAGTCA | -0.134 |
